The results in this text go back to paper PMC4336329 (PLoS ONE, 2015).

About 14,000 (4.5%) of roughly 310,000 compounds showed an effect of 50% or more. The effect is printed as a negative number. Some of the results follow.
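Further: peak tail current of the secondary pulse compared with the same well before compound.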

The target in this test is human ether-à-go-go-related gene (hERG) potassium channel (human, UniProt Q12809). The experiment in a line: primary screen, population patch clamp on CHO cells stably expressing hERG.
Sequence of human ether-à-go-go-related gene (hERG) potassium channel (Q12809 whole entry, looked up): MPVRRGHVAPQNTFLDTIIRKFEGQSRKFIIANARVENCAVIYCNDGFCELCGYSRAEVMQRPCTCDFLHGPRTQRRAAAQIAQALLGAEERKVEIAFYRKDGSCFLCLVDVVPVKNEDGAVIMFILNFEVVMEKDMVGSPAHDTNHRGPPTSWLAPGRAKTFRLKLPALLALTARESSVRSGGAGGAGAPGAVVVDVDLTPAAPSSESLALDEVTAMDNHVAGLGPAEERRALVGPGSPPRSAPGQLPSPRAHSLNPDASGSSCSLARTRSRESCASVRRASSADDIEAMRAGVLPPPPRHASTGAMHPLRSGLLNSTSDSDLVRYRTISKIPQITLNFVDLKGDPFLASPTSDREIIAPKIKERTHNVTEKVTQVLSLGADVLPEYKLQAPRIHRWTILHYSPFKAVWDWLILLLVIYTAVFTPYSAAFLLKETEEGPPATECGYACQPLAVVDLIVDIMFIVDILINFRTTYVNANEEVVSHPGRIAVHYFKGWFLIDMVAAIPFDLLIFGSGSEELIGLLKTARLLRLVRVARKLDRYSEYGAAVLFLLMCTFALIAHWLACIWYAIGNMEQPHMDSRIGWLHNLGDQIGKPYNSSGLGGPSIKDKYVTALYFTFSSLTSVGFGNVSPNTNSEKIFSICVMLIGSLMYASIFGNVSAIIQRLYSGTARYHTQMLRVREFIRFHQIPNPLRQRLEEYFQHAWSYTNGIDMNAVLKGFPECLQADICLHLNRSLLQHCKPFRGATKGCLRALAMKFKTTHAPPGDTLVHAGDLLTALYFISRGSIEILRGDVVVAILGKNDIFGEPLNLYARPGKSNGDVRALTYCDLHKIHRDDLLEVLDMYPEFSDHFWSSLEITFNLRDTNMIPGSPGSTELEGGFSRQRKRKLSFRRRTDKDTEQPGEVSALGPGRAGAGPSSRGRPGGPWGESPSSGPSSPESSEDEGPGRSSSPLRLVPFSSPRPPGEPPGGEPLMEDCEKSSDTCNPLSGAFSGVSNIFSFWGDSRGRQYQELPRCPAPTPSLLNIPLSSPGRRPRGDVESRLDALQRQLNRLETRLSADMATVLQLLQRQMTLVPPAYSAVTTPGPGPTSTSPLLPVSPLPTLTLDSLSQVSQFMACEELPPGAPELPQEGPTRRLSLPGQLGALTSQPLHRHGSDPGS
Take `Cc1nc2ccccc2n1C1CCN(CC(=O)NCc2ccc(F)cc2)CC1`: the “hERG current change (%, negative = inhibition) at 10uM” value was -58%.
Regarding `CC(C)NC(=O)Cn1cnc2c1c(=O)n(C)c(=O)n2C`, the “hERG current change (%, negative = inhibition) at 10uM” value is reported as 14.2%.
For `Cn1c(=O)cc2c3c(c(N4CCCCC4)ccc31)C(=O)c1ccccc1-2` the value was -63.2%.
In the case of `O=c1c2ccccc2nc(-c2ccccc2F)n1-c1ccccc1`, the “hERG current change (%, negative = inhibition) at 10uM” value is 9.2%.
For the molecule `Oc1[nH]c2ccccc2c1N=Nc1ccccc1F`, the “hERG current change (%, negative = inhibition) at 10uM” value was determined as 3.96%.
For `Cc1cccc(OCCN2C(=O)C(=O)c3cc(C)ccc32)c1`, the “hERG current change (%, negative = inhibition) at 10uM” value was -2.6%.
Take `CC1CCCCC12NC(=O)N(CC(=O)Nc1ccc(S(=O)(=O)Nc3ncccn3)cc1)C2=O` (stereo not drawn): the “hERG current change (%, negative = inhibition) at 10uM” value is listed as 6.88%.
As to `Cc1cc(=O)n2nc(N3CCCC3C(=O)NCCCN3CC(C)CC(C)C3)sc2n1` (stereo not drawn), the “hERG current change (%, negative = inhibition) at 10uM” value is recorded as 22%.
For `CC(=O)NS(=O)(=O)c1ccc(N=c2ssc3c2-c2ccc(C)cc2NC3(C)C)cc1` the value was -1.08%; for `Cc1cccc(NC(=O)C2CCN(S(=O)(=O)c3cccc4cccnc34)CC2)c1`, -3.14%.
With `Cl.Nn1cnnc1N/N=C/c1cccc(Cl)c1Cl`, the “hERG current change (%, negative = inhibition) at 10uM” value was found to be 3.58%.
`Cc1cc(C(=O)Nc2cnn(Cc3ccc(Cl)cc3Cl)c2)no1`: the “hERG current change (%, negative = inhibition) at 10uM” value is -1.98%.
Turning to `CC1Sc2ccc(C(=O)Nc3ccc(S(=O)(=O)N(C)C)cc3)cc2NC1=O` (stereo not drawn), the “hERG current change (%, negative = inhibition) at 10uM” value is reported as -21.8%.
As for `COC(=O)C1=C(C(=O)OC)[C@@H]2N(Cc3ccccc3)c3ccccc3[C@@]23C[C@@H](C(=O)OC)N(C(=O)NC(C)(C)C)C3=N1`, the “hERG current change (%, negative = inhibition) at 10uM” value was -11.7%.
For the molecule `COc1ccccc1NC(=O)CC1C(=O)Nc2c1c(=O)n(C)c(=O)n2C` (stereo not drawn), the “hERG current change (%, negative = inhibition) at 10uM” value is reported as 4.88%.
For the molecule `CNC(=O)Nc1ccccc1NC(=O)NC`, the “hERG current change (%, negative = inhibition) at 10uM” value amounted to 26.6%.
For `O=C(NC1CCCCC1)OCCN1CCN(Cc2ccccc2)CCC1=O` the value was -19.9%; for `CCOC(=O)C(C)Sc1ncc(OC)c(Sc2ccc(Cl)cc2)n1` (stereo not drawn), 2.7%.
On to `CCCCC1(O)CC(C(F)(F)F)=NN1C(=O)COc1ccccc1` (stereo not drawn), for which the “hERG current change (%, negative = inhibition) at 10uM” value was -13.2%.
In the case of `CCCOc1ccc(-c2c(C(=O)N/N=C/c3ccc(C)o3)nnn2-c2nonc2N)cc1`, the “hERG current change (%, negative = inhibition) at 10uM” value is listed as 19.4%.
With `CN(C)CCNC(=S)NC1CCCCC1`, the “hERG current change (%, negative = inhibition) at 10uM” value was found to be 19.7%.
For `COc1ccc(/C=N/OCC(=O)Nc2nc3ccccc3s2)cc1OC` the value was 11.4%; for `CC1(c2ccccc2Cl)NC(=O)N(CC(=O)Nc2ccc(N3CCCCC3)cc2)C1=O` (stereo not drawn), -21.9%; for `O=C(COC(=O)[C@@H]1CCCN1S(=O)(=O)c1ccc(Cl)cc1)NC1CC1`, -4.21%.
In the case of `O=C(O)CSc1nnc(-c2cc3ccccc3o2)n1-c1ccccc1`, the “hERG current change (%, negative = inhibition) at 10uM” value is reported as 7.76%.
Take `CC(CC(=O)N1CCN(c2cccc(Cl)c2)CC1)S(=O)(=O)c1ccc2c(c1)NC(=O)CO2` (stereo not drawn): the “hERG current change (%, negative = inhibition) at 10uM” value is -22.8%.
For `COc1ccc2c(c1OC)C(=O)OC2n1c(O)c(N=NC(C)=O)c2ccccc21` (stereo not drawn) the value was 13.5%; for `CC1Cc2cc(/C(O)=C3/C(=O)C(=O)N(Cc4ccco4)C3c3cccs3)ccc2O1` (stereo not drawn), -1.15%; for `COCCCNC(=O)c1c(N)n(Cc2ccco2)c2nc3ccccc3nc12`, -2.08%.
With `CCOc1ccc(-c2noc(CCC(=O)NC)n2)cc1OCC`, the “hERG current change (%, negative = inhibition) at 10uM” value is listed as 2.22%.
Turning to `Cc1ccccc1NC(=S)c1nc2ccccc2[nH]1`, the “hERG current change (%, negative = inhibition) at 10uM” value was found to be 16.3%.
Regarding `O=C(CSc1ccccn1)Nc1ccc(N2CCOCC2)cc1`, the “hERG current change (%, negative = inhibition) at 10uM” value was 3.15%.
As to `CC(=O)Nn1c(C)nnc1-n1nc(C)cc1C`, the “hERG current change (%, negative = inhibition) at 10uM” value came out at 14.6%.
For `NC(=O)c1ccc(N=Nc2c(O)c3ccccc3[nH]c2=O)cc1`, the “hERG current change (%, negative = inhibition) at 10uM” value is 10.4%.
For `COc1cccc(/C=N/NC(=S)NCCc2ccccc2)c1OC` the value was 16.7%.
As for `Cc1cc([N+](=O)[O-])cnc1NC(C)c1ccccc1` (stereo not drawn), the “hERG current change (%, negative = inhibition) at 10uM” value was -1.33%.
On to `CCC(C)NC(=O)c1nn(Cc2ccccc2)c(=O)c2ccccc12` (stereo not drawn), for which the “hERG current change (%, negative = inhibition) at 10uM” value is recorded as 11.9%.
Turning to `CCOC(=O)c1cc(CC)sc1NC(=O)CSc1nc2ccccc2c(=O)n1Cc1ccco1`, the “hERG current change (%, negative = inhibition) at 10uM” value is listed as -3.35%.
Consider `Cc1cccc(NC(=O)CN(C)S(=O)(=O)c2cccc3cccnc23)c1C`, for which the “hERG current change (%, negative = inhibition) at 10uM” value was -5.69%.
As for `O=C(O)C1CCCN1c1nc(-c2ccc(Cl)c(Cl)c2)cc(C(F)(F)F)n1` (stereo not drawn), the “hERG current change (%, negative = inhibition) at 10uM” value is reported as -3.5%.
`CN(Cc1ccccn1)C(=O)CC1C(=O)NCCN1Cc1ccc(F)cc1Cl` (stereo not drawn): the “hERG current change (%, negative = inhibition) at 10uM” value is recorded as 16.4%.
For `O=[N+]([O-])c1cccc(C(=Nc2ccccc2)NO)c1` the value was 3.51%.
